For at least one compound, name, drawing or mass did not settle the structure. Numbered stars: 1 amine (or outer) side, 2 acyl side, 3 side chain; on linkers, the order of the positions; unused ones are H or OH. Bridge positions count the residues as written; N and C are the ends. Square brackets hold non-standard residues; d marks the D form. Peptide text beside a SMILES is read from it. I, II: the chains in the order shown. X2 = O=C(CCOCCOCCOCCOCCOCCOCCOCCOCCOCCOCCOCCOCCOCCOCCOCCOCCOCCOCCOCCOCCOCCOCCOCCOCCOCCC(=O)[*:2])[*:1]; CO(CH2CH2O)13CH2CH2CO = O=C(CCOCCOCCOCCOCCOCCOCCOCCOCCOCCOCCOCCOCCOCCC(=O)[*:2])[*:1]; Phe(4-CF3) = N[C@@H](Cc1ccc(C(F)(F)F)cc1)C(=O)O; Diglycolyl = O=C(COCC(=O)[*:2])[*:1]; NMeR = CN[C@@H](CCCNC(=N)N)C(=O)O; Pen = CC(C)(S)[C@H](N)C(=O)O; Dab = NCC[C@H](N)C(=O)O; Dap = NC[C@H](N)C(=O)O
What follows are compounds tested against α4β7 (Homo sapiens, UniProt P13612+P26010) (assay: α4β7-MAdCAM Cell Adhesion Assay (RPMI 8866 human cells)). Conditions: Table 3-B, Potency (α4β7); range classes; read-out: α4β7 cell (Hu) IC50.
Sequence of α4β7 (P13612 34-1032): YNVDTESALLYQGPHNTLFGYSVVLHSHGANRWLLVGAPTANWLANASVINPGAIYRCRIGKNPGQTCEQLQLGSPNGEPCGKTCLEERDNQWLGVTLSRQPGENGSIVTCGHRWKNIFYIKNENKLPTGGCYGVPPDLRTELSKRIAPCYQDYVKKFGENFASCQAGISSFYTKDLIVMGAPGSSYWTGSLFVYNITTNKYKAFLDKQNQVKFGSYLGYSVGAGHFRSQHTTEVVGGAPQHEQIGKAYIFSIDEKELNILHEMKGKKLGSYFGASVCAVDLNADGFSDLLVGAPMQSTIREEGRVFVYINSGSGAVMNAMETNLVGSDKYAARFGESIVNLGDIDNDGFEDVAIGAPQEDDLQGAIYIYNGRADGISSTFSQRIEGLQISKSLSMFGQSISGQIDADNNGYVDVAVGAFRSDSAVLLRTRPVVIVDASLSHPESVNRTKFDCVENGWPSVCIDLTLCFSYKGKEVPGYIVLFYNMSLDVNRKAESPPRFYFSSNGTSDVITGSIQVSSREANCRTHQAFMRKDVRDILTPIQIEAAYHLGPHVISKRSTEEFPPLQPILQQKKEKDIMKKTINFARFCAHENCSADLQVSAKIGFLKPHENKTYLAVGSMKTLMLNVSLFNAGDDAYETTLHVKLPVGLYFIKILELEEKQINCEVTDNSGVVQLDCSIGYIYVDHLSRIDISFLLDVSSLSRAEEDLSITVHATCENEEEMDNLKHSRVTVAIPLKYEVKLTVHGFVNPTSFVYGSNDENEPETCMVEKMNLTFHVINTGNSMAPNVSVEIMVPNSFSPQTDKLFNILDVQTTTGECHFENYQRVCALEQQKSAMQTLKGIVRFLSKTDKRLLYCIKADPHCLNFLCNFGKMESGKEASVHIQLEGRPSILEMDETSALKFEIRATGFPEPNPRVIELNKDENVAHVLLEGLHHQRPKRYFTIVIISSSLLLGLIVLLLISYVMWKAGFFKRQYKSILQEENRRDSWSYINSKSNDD
Sequence of α4β7 (P26010 20-798): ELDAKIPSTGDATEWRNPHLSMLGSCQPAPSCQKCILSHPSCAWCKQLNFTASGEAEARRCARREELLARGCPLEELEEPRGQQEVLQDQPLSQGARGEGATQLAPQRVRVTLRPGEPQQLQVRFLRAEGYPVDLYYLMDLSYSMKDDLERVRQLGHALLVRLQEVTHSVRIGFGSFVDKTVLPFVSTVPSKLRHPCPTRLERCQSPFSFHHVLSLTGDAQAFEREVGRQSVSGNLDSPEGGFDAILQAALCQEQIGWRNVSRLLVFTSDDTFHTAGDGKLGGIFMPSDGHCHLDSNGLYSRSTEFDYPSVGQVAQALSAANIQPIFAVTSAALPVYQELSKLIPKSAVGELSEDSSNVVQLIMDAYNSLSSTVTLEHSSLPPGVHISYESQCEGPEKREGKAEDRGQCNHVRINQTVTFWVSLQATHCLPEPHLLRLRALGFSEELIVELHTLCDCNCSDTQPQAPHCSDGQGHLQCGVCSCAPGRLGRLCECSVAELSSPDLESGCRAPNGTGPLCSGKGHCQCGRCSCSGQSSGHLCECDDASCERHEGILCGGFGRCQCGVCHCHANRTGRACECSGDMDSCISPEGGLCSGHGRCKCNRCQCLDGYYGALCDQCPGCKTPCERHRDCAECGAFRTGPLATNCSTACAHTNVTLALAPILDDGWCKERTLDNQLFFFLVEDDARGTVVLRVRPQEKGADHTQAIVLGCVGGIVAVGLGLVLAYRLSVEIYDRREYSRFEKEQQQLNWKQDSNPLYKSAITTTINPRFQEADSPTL
Format: cell-based
Set-up: host or cells: RPMI 8866 human B lymphoblastoid cells
Description: RPMI 8866 human cells (Sigma #95041316) were cultured in RPMI 1640 HEPES medium (Invitrogen #22400-089) supplemented with 10% serum (Fetal Bovine Serum, Invitrogen #16140-071), 1 mM sodium pyruvate (Invitrogen #11360-070), 2 mM L-glutamine (Invitrogen #25030-081) and Penicillin-Streptomycin (Invitrogen #15140-122) at 100 units of penicillin and 100 μg of streptomycin per ml. The cells were washed two times in DMEM medium (ATCC #30-2002) supplemented with 0.1% BSA, 10 mM HEPES pH 7 and 1 mM MnCl2. The cells were re-suspended in supplemented DMEM medium at a density of 4×10^6 cells/ml.
A Nunc MaxiSorp plate was coated with rh MAdCAM-1/Fc Chimera (R&D #6065-MC) at 200 ng per well in 50 ul per well in 1×PBS and incubated at 4° C. overnight. The solution was then removed by shaking, blocked with 250 ul per well PBS containing 1% BSA, and incubated at 37° C. for 1 hr. The solution was removed by shaking. Peptides were diluted by serial dilution in a final volume of 50 ul per well (2× concentration). To each well, 50 ul of cells (200,000 cells) were added and the plate was incubated at 37° C., 5% CO2 for 30-45 min to allow cell adhesion. The wells were washed manually three times (100 ul per wash) with supplemented DMEM. After the final wash, 100 ul/well of supplemented DMEM and 10 ul/well of MTT reagent (ATTC cat#30-1010K) were added. The plate was incubated at 37° C., 5% CO2 for 2-3 hrs until a purple precipitate was visible. 100 ul of Detergent Reagent (ATTC cat#30-1010K) was added to each well. The plate was covered from the light, wrapped in Parafilm to prevent evaporation, and left overnight at room temperature in the dark. The plate was shaken for 5 min and the absorbance at 570 nm was measured. To calculate the dose response, the absorbance value of control wells not containing cells was subtracted from each test well.

With `CC(=O)N[C@@H]1C(=O)N(C)[C@@H](CCCNC(=N)N)C(=O)N[C@@H](CO)C(=O)N[C@@H](CC(=O)O)C(=O)N[C@@H]([C@@H](C)O)C(=O)N[C@@H](CC(C)C)C(=O)N[C@H](C(=O)N[C@@H](Cc2ccc(C(F)(F)F)cc2)C(=O)N[C@H](CCC(=O)O)C(=O)N[C@H](CCCCNC(=O)COCC(=O)NCCCC[C@@H](NC(=O)[C@@H](CCC(=O)O)NC(=O)[C@H](Cc2ccc(C(F)(F)F)cc2)NC(=O)[C@H]2NC(=O)[C@H](CC(C)C)NC(=O)[C@H]([C@@H](C)O)NC(=O)[C@H](CC(=O)O)NC(=O)[C@H](CO)NC(=O)[C@H](CCCNC(=N)N)N(C)C(=O)[C@@H](NC(C)=O)C(C)(C)SSC2(C)C)C(N)=O)C(N)=O)C(C)(C)SSC1(C)C` [compound 3] (I: Ac-[Pen][NMeR]SDTL[Pen][Phe(4-CF3)][dE][dK]-NH2 / II: Ac-[Pen][NMeR]SDTL[Pen][Phe(4-CF3)][dE][dK]-NH2; disulfide I:1-I:7, II:1-II:7; linker I:10-II:10 via Diglycolyl) as the compound, how does the IC50 read?
The IC50 was 25 to 50 nM.

`CC(=O)N[C@@H]1CCCCNC(=O)COCC(=O)NCCCC[C@@H](NC(C)=O)C(=O)N[C@H]2CSSC[C@H](NC(=O)[C@H](CC(C)C)NC(=O)[C@H]([C@@H](C)O)NC(=O)[C@H](CC(=O)O)NC(=O)[C@H](CO)NC(=O)[C@H](CCCNC(=N)N)N(C)C2=O)C(=O)N[C@@H](Cc2c[nH]c3ccccc23)C(=O)N[C@@H](C(N)=O)CCCCNC(=O)COCC(=O)NCCCC[C@H](C(N)=O)NC(=O)[C@H](Cc2c[nH]c3ccccc23)NC(=O)[C@@H]2CSSC[C@H](NC1=O)C(=O)N(C)[C@@H](CCCNC(=N)N)C(=O)N[C@@H](CO)C(=O)N[C@@H](CC(=O)O)C(=O)N[C@@H]([C@@H](C)O)C(=O)N[C@@H](CC(C)C)C(=O)N2` [compound 5] (I: Ac-[dK]C[NMeR]SDTLCW[dK]-NH2 / II: Ac-[dK]C[NMeR]SDTLCW[dK]-NH2; linker I:1-II:1, I:10-II:10 via Diglycolyl; disulfide I:2-I:8, II:2-II:8) was tested. Which IC50 did it give?
Its IC50 is 50 to 100 nM.

Which IC50 does the source give for `CC(C)C[C@@H]1NC(=O)[C@H]([C@@H](C)O)NC(=O)[C@H](CC(=O)O)NC(=O)[C@H](CO)NC(=O)[C@H](CCCNC(=N)N)N(C)C(=O)[C@@H](NC(=O)COCC(=O)N[C@H]2CSSC[C@@H](C(=O)N[C@@H](Cc3c[nH]c4ccccc34)C(N)=O)NC(=O)[C@H](CC(C)C)NC(=O)[C@H]([C@@H](C)O)NC(=O)[C@H](CC(=O)O)NC(=O)[C@H](CO)NC(=O)[C@H](CCCNC(=N)N)N(C)C2=O)CSSC[C@@H](C(=O)N[C@@H](Cc2c[nH]c3ccccc23)C(N)=O)NC1=O` [compound 6] (I: C[NMeR]SDTLCW-NH2 / II: C[NMeR]SDTLCW-NH2; disulfide I:1-I:7, II:1-II:7; linker I:N-II:N via Diglycolyl) here?
The IC50 was 50 to 100 nM.

Which IC50 does the source give for `CC(C)C[C@@H]1NC(=O)[C@H]([C@@H](C)O)NC(=O)[C@H](CC(=O)O)NC(=O)[C@H](CO)NC(=O)[C@H](CCCNC(=N)N)N(C)C(=O)[C@@H](NC(=O)COCC(=O)N[C@@H]2C(=O)N(C)[C@@H](CCCNC(=N)N)C(=O)N[C@@H](CO)C(=O)N[C@@H](CC(=O)O)C(=O)N[C@@H]([C@@H](C)O)C(=O)N[C@@H](CC(C)C)C(=O)N[C@H](C(=O)N[C@H](Cc3ccccc3)C(N)=O)C(C)(C)SSC2(C)C)C(C)(C)SSC(C)(C)[C@@H](C(=O)N[C@H](Cc2ccccc2)C(N)=O)NC1=O` [compound 7] (I: [Pen][NMeR]SDTL[Pen][dF]-NH2 / II: [Pen][NMeR]SDTL[Pen][dF]-NH2; disulfide I:1-I:7, II:1-II:7; linker I:N-II:N via Diglycolyl) here?
Its IC50 is 1000 to 10000 nM.

`CC(C)C[C@@H]1NC(=O)[C@H]([C@@H](C)O)NC(=O)[C@H](CC(=O)O)NC(=O)[C@H](CO)NC(=O)[C@H](CCCNC(=N)N)N(C)C(=O)[C@@H](NC(=O)CCOCCOCCOCCOCCOCCOCCOCCOCCOCCOCCOCCOCCOCCC(=O)N[C@H]2CSSC(C)(C)[C@@H](C(=O)N[C@@H](Cc3c[nH]c4ccccc34)C(N)=O)NC(=O)[C@H](CC(C)C)NC(=O)[C@H]([C@@H](C)O)NC(=O)[C@H](CC(=O)O)NC(=O)[C@H](CO)NC(=O)[C@H](CCCNC(=N)N)N(C)C2=O)CSSC(C)(C)[C@@H](C(=O)N[C@@H](Cc2c[nH]c3ccccc23)C(N)=O)NC1=O` [compound 20] (I: C[NMeR]SDTL[Pen]W-NH2 / II: C[NMeR]SDTL[Pen]W-NH2; disulfide I:1-I:7, II:1-II:7; linker I:N-II:N via CO(CH2CH2O)13CH2CH2CO) was tested. Which IC50 did it give?
Its IC50 is 50 to 100 nM.

`CC(C)C[C@@H]1NC(=O)[C@H]([C@@H](C)O)NC(=O)[C@H](CC(=O)O)NC(=O)[C@H](CO)NC(=O)[C@H](CCCNC(=N)N)N(C)C(=O)[C@@H](NC(=O)CCOCCOCCOCCOCCOCCOCCOCCOCCOCCOCCOCCOCCOCCOCCOCCOCCOCCOCCOCCOCCOCCOCCOCCOCCOCCC(=O)N[C@H]2CSSC(C)(C)[C@@H](C(=O)N[C@@H](Cc3c[nH]c4ccccc34)C(N)=O)NC(=O)[C@H](CC(C)C)NC(=O)[C@H]([C@@H](C)O)NC(=O)[C@H](CC(=O)O)NC(=O)[C@H](CO)NC(=O)[C@H](CCCNC(=N)N)N(C)C2=O)CSSC(C)(C)[C@@H](C(=O)N[C@@H](Cc2c[nH]c3ccccc23)C(N)=O)NC1=O` [compound 21] (I: C[NMeR]SDTL[Pen]W-NH2 / II: C[NMeR]SDTL[Pen]W-NH2; disulfide I:1-I:7, II:1-II:7; linker I:N-II:N via X2) was tested. Which IC50 did it give?
Its IC50 is 50 to 100 nM.

`CC(=O)NC[C@H](NC(=O)[C@H](CCC(=O)O)NC(=O)[C@H](Cc1c[nH]c2ccccc12)NC(=O)[C@H]1NC(=O)[C@H](CC(C)C)NC(=O)[C@H]([C@@H](C)O)NC(=O)[C@H](CC(=O)O)NC(=O)[C@H](CO)NC(=O)[C@H](CCCNC(=N)N)N(C)C(=O)[C@@H](NC(C)=O)C(C)(C)SSC1(C)C)C(N)=O` [compound 60] (Ac-[Pen][NMeR]SDTL[Pen]WE[Dap](Ac)-NH2; disulfide 1-7; C-terminus assumed) was tested. Which IC50 did it give?
Its IC50 is 1000 to 10000 nM.

`CC(=O)NCC[C@H](NC(=O)[C@H](CCC(=O)O)NC(=O)[C@H](Cc1c[nH]c2ccccc12)NC(=O)[C@H]1NC(=O)[C@H](CC(C)C)NC(=O)[C@H]([C@@H](C)O)NC(=O)[C@H](CC(=O)O)NC(=O)[C@H](CO)NC(=O)[C@H](CCCNC(=N)N)N(C)C(=O)[C@@H](NC(C)=O)C(C)(C)SSC1(C)C)C(N)=O` [compound 62] (Ac-[Pen][NMeR]SDTL[Pen]WE[Dab](Ac)-NH2; disulfide 1-7; C-terminus assumed) was tested. Which IC50 did it give?
Its IC50 is 1000 to 10000 nM.

For `CC(=O)NC[C@H](NC(=O)[C@@H](CCC(=O)O)NC(=O)[C@H](Cc1c[nH]c2ccccc12)NC(=O)[C@H]1NC(=O)[C@H](CC(C)C)NC(=O)[C@H]([C@@H](C)O)NC(=O)[C@H](CC(=O)O)NC(=O)[C@H](CO)NC(=O)[C@H](CCCNC(=N)N)N(C)C(=O)[C@@H](NC(C)=O)C(C)(C)SSC1(C)C)C(N)=O` [compound 63] (Ac-[Pen][NMeR]SDTL[Pen]W[dE][Dap](Ac)-NH2; disulfide 1-7; C-terminus assumed), which IC50 is on record?
Its IC50 is 1000 to 10000 nM.

Which IC50 does the source give for `CC(=O)NCC[C@H](NC(=O)[C@@H](CCC(=O)O)NC(=O)[C@H](Cc1c[nH]c2ccccc12)NC(=O)[C@H]1NC(=O)[C@H](CC(C)C)NC(=O)[C@H]([C@@H](C)O)NC(=O)[C@H](CC(=O)O)NC(=O)[C@H](CO)NC(=O)[C@H](CCCNC(=N)N)N(C)C(=O)[C@@H](NC(C)=O)C(C)(C)SSC1(C)C)C(N)=O` [compound 64] (Ac-[Pen][NMeR]SDTL[Pen]W[dE][Dab](Ac)-NH2; disulfide 1-7; C-terminus assumed) here?
The IC50 was 1000 to 10000 nM.

For `CC(=O)NCCCC[C@@H](NC(=O)[C@H](CCC(=O)O)NC(=O)[C@H](Cc1c[nH]c2ccccc12)NC(=O)[C@H]1NC(=O)[C@H](CC(C)C)NC(=O)[C@H]([C@@H](C)O)NC(=O)[C@H](CC(=O)O)NC(=O)[C@H](CO)NC(=O)[C@H](CCCNC(=N)N)N(C)C(=O)[C@@H](NC(C)=O)C(C)(C)SSC1(C)C)C(N)=O` [compound 65] (Ac-[Pen][NMeR]SDTL[Pen]WE[dK](Ac)-NH2; disulfide 1-7; C-terminus assumed), which IC50 is on record?
The IC50 was 10000 to 100000 nM.

Same assay, conditions: read-out: IC50, RPMI8866/MAdCAM cell adhesion assay

Which IC50 does the source give for `CC(=O)N[C@@H]1C(=O)N(C)[C@@H](CCCNC(=N)N)C(=O)N[C@@H](CO)C(=O)N[C@@H](CC(=O)O)C(=O)N[C@@H]([C@@H](C)O)C(=O)N[C@@H](CC(C)C)C(=O)N[C@H](C(=O)N[C@@H](Cc2ccc(C(C)(C)C)cc2)C(=O)N[C@@H](CCC(=O)O)CC(=O)N[C@H](CCCCNC(=O)CN(CC(=O)NCCCC[C@@H](NC(=O)C[C@H](CCC(=O)O)NC(=O)[C@H](Cc2ccc(C(C)(C)C)cc2)NC(=O)[C@H]2NC(=O)[C@H](CC(C)C)NC(=O)[C@H]([C@@H](C)O)NC(=O)[C@H](CC(=O)O)NC(=O)[C@H](CO)NC(=O)[C@H](CCCNC(=N)N)N(C)C(=O)[C@@H](NC(C)=O)C(C)(C)SSC2(C)C)C(N)=O)C(=O)CCNC(=O)CCCCCC2(C)C(=CC=CC=CC3=[N+](CCCS(=O)(=O)[O-])c4ccc(S(=O)(=O)O)cc4C3(C)C)N(CCCS(=O)(=O)O)c3ccc(S(=O)(=O)O)cc32)C(N)=O)C(C)(C)SSC1(C)C` (single isomer, unassigned) [Peptide X-Alexa 647] here?
Its IC50 is 0.15 nM.

Reference: patent US9809623B2, “α4β7 peptide monomer and dimer antagonists” (Protagonist Therapeutics, Inc., priority 2014, dated 2017)
